Out of some 310,000 compounds screened, about 14,000 (4.5%) showed an effect of 50% or more. Effects have a minus sign here. The list shows a part of the results.
Target: human ether-à-go-go-related gene (hERG) potassium channel (human, UniProt Q12809)
Experiment: primary screen, population patch clamp on CHO cells stably expressing hERG
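Further: peak tail current of the secondary pulse compared with the same well before compound.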

Chain of human ether-à-go-go-related gene (hERG) potassium channel (Q12809 whole entry, looked up): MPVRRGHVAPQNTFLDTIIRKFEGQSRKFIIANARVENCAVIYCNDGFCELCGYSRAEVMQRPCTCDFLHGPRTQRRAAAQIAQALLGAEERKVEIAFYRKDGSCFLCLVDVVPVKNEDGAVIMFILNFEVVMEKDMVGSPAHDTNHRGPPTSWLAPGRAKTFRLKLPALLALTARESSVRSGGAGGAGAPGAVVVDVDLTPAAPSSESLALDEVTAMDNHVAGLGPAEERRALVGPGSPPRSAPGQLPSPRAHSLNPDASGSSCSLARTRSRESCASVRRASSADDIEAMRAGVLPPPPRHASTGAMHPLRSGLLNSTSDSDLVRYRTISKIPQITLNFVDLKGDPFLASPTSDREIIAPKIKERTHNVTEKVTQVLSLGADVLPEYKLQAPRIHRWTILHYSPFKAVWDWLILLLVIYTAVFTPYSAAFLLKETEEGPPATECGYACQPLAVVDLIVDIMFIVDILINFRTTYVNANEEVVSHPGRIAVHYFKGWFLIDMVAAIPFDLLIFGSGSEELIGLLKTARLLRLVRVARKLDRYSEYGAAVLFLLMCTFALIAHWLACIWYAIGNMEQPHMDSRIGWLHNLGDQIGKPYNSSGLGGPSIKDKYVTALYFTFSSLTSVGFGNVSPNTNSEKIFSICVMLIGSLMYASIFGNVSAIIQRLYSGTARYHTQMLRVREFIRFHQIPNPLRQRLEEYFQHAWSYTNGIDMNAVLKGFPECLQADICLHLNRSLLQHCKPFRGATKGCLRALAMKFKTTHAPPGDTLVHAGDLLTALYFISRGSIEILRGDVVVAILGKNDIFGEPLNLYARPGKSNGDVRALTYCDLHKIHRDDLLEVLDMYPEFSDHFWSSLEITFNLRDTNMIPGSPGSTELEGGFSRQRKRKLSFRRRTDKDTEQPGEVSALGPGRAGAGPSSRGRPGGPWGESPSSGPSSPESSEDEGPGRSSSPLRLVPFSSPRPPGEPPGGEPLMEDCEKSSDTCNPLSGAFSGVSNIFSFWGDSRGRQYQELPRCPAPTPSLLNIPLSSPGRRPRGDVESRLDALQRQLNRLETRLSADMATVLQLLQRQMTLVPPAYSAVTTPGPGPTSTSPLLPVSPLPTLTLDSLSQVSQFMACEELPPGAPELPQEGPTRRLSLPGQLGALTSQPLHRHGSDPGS

In order of rising “hERG current change (%, negative = inhibition) at 10uM” value:
1. Fc1ccc(CSc2ccc3nnc(-c4ccccn4)n3n2)cc1  -87.6%
2. Cc1ccccc1OCC(O)Cn1c(=N)n(Cc2ccccc2)c2ccccc21.Cl (stereo not shown)  -73%
3. C/C=C/C1=CC(=O)C[C@H](c2ccc(Cl)cc2)C1  -63.9%
4. CCN(CC(=O)Nc1c(F)cccc1F)C(=O)Cc1c(C)nc2ccccc2c1C  -55.1%
5. Cc1sc(NC(=O)c2ccco2)c(CN2CCCCC2)c1C  -49.9%
6. Cc1ccc(CN2C(=O)CCC2C(=O)NCCN2CCN(c3cccc(Cl)c3)CC2)cc1 (stereo not shown)  -48.1%
7. Cc1ccc(C(=O)NCc2nnc(SCC(=O)Nc3ccccc3)n2C)cc1  -46.5%
8. Cc1ccc(S(=O)(=O)N2CCN(C(=O)Cc3ccc4c(c3)OCCO4)CC2)cc1C  -40.8%
9. CCOC(=O)C1CCCN(Cc2ccc(OCc3ccccc3)cc2)C1.O=C(O)C(=O)O (stereo not shown)  -40.6%
10. Cc1cccc(CS(=O)(=O)Cc2ccc(C(=O)NCCc3ccccc3)o2)c1  -38.8%
11. N#Cc1ccc(Oc2ccc(S(=O)(=O)N3CCCC3)cn2)cc1  -35.8%
12. O=c1c2c(nc3n1CCCCC3)-c1ccccc1CC21CCCC1  -31%
13. CN1CCC(N(C)C(=O)/C=C/c2cn(-c3ccccc3)nc2-c2cccs2)CC1.Cl  -22.3%
14. O=C(Sc1ccccc1)c1cccc(Cn2cc(C(F)(F)F)ccc2=O)c1  -21%
15. O=C(CSC1=Nc2ccccc2C2=NC(c3ccccc3)C(=O)N12)NC1CCCCC1 (stereo not shown)  -20.1%
16. CCSc1nnc(-c2ccncc2)n1Cc1ccccc1  -18.5%
17. Cc1cccc2cc(C(c3nnnn3Cc3ccc4c(c3)OCO4)N3CCCC3)c(=O)[nH]c12 (stereo not shown)  -15.7%
18. CN(NC(=O)c1ccc(Cl)cc1)c1cccc(Cl)n1  -14.2%
19. COC(=O)CN(Cc1ccco1)S(=O)(=O)c1ccccc1  -13.7%
20. CCc1cc2c(SCC(=O)N3CC(=O)Nc4ccccc43)ncnc2s1  -12.6%
21. COc1ccccc1C(C[N+](=O)[O-])c1c[nH]c2ccccc12 (stereo not shown)  -12.4%
22. O=C(CN1CCCCC1)Nc1nnc(-c2ccccc2)s1  -12.3%
23. Cc1ccc(CN2C(=O)C(Cc3ccccc3)Nc3ncnc(N4CCCCC4)c32)cc1.O=C(O)C(F)(F)F (stereo not shown)  -12%
24. CSc1nc(N)nc(SCC(=O)Nc2ccc(Cl)cc2)c1C#N  -11.1%
25. Nc1cc([N+](=O)[O-])ccc1Nc1ccc(O)cc1  -8.83%
26. COc1cc(S(=O)(=O)N2CCCCCC2)c(OC)cc1Br  -7.25%
27. COc1ccc(-n2c(=O)[nH]c3c(C(N)=O)nc(C4CCCCC4)nc32)cc1  -6.53%
28. COc1ccccc1CCC(=O)OCC(=O)Nc1cccc(S(=O)(=O)N2CCCCC2)c1  -6.37%
29. C=CCOC(=O)C1=C(C)Nc2nnnn2C1c1cccc(OC)c1OC (stereo not shown)  -4.72%
30. CC(=O)c1ccc(NC(=S)NC(NC(=O)c2ccco2)C(Cl)(Cl)Cl)cc1 (stereo not shown)  -3.92%
31. COc1cc2nc(SCC(=O)NCc3ccco3)n(Cc3ccc(Cl)cc3)c(=O)c2cc1OC  -3.17%
32. CCC[C@@H]1CCCC/C=C\CCCC(=O)OCCN1C(=O)OC(C)(C)C  -3.14%
33. COCCN1C=C(C(=O)OC)C(c2cc3c(cc2Br)OCO3)C(C(=O)OC)=C1  -1.89%
34. CCn1c(-c2ccccc2Cl)nn(CC(=O)Nc2ccccc2OC)c1=S  -1.37%
35. COc1ccc([N+](=O)[O-])cc1NC(=O)c1ccc(C)o1  -1.33%
36. COc1ccc(-c2nc(C)ncc2-c2ccccc2)c(O)c1  -1.19%
37. COc1ccc(-c2cc(C(F)(F)F)nc(SCC(=O)NCc3cccs3)n2)cc1  -0.806%
38. CC(=O)Nc1ccc(OCc2nnc(-c3ccccc3)o2)cc1  -0.46%
39. O=C(Nc1ccccc1[N+](=O)[O-])c1cncc(Br)c1  -0.382%
40. O=C(NC(=S)Nc1nc(-c2cccc3ccccc23)cs1)c1cc2ccccc2o1  -0.27%
41. CC(C)(C)N1C(=O)c2ccc(C(=O)Nc3nccs3)cc2C1=O  0.415%
42. CCOC(=O)N1CCN(c2nc3ccccc3n3cnnc23)CC1  1.2%
43. O=C(c1ccc([N+](=O)[O-])o1)N1CCOCC1  1.3%
44. Cc1ccc(-c2nc(NC(=O)CSc3ccc4ccccc4n3)ns2)cc1  2.03%
45. Cn1c(Nc2cccc(Cl)c2)nc2ccccc21  2.08%
46. OC(c1ccc(Cl)cc1)c1nnc(-c2ccccc2)o1 (stereo not shown)  2.19%
47. CNc1oc(-c2ccccc2F)nc1S(=O)(=O)c1ccc(C)cc1  2.47%
48. Cc1ccccc1NS(=O)(=O)c1cc(C(=O)Nc2cccc(N(C)S(C)(=O)=O)c2)ccc1C  2.52%
49. Cc1ccc(S(=O)(=O)N2CCCC(C(=O)NCC(C)C)C2)cc1 (stereo not shown)  3.46%
50. COC(=O)C(C(=O)Nc1cccc(Cl)c1C)C1CCCC1 (stereo not shown)  3.99%
51. CC(C)CNC(=O)C(=O)Nc1cc2c3c(c1)C(C)C(=O)N3CCC2 (stereo not shown)  4.51%
52. COc1cc(C2C3=C(CC(c4ccco4)CC3=O)Nc3ccccc3N2C(C)=O)cc(OC)c1OC (stereo not shown)  4.52%
53. CCCCOc1ccc(/C=C/C(=O)OCC(=O)c2c(N)n(C)c(=O)n(C)c2=O)cc1OCC  5.01%
54. CCc1nnc(NC(=O)CSc2nnc(-c3c[nH]c4ccccc34)n2C)s1  5.82%
55. O=S(=O)(Nc1ccc2c(c1)OCCO2)c1cccs1  5.92%
56. COc1cc(NC(=O)CCS(=O)(=O)c2ccc3nc(C)sc3c2)cc(OC)c1OC  6.74%
57. CCCCC(=O)N/N=C/c1c(O)n(Cc2ccco2)c(=O)[nH]c1=O  8.09%
58. COc1ccc(C2(CN(C(C)=O)C(C)=O)CCCC2)cc1OC  8.14%
59. COC(=O)CNC(=O)c1cccc(F)c1  8.24%
60. Fc1cccc2sc(N3CCOCC3)nc12  8.35%
61. Cc1ccsc1C(=O)OCC(=O)N1CC(=O)Nc2ccccc21  8.69%
62. CC(C)[N+]1(C)[C@@H]2CC[C@@H]1CC(OC(=O)C(CO)c1ccccc1)C2.[Br-] (stereo partly shown)  9.01%
63. Cc1cc(C)c2nncn2n1  9.04%
64. Cc1cccc([N+](=O)[O-])c1NC(=O)CSc1nnc2ccccn12  9.29%
65. Cc1ccc(N(CC(O)Cn2c3ccccc3c3ccccc32)S(C)(=O)=O)cc1 (stereo not shown)  9.82%
66. Cc1ccc(S(=O)(=O)N2C(=O)CCC2C(=O)N2CCCCC2)cc1 (stereo not shown)  9.95%
67. O=C(Nc1sc2c(c1C(=O)O)CCCC2)c1ccc(F)cc1  10.1%
68. Cc1ccc(S(=O)(=O)N2CCCCC2)cc1C(=O)N(CCc1ccccc1)Cc1ccccc1  10.3%
69. CN(CC(=O)Nc1ccc(OC(F)(F)F)cc1)C(=O)Cc1c(Cl)cccc1Cl  11.2%
70. CC12CC[C@H]3[C@@H](CCC4(O)C[C@H](O)CCC34/C=N/NC(=O)Cc3ccccc3)C1(O)CCC2C1=CC(=O)OC1 (stereo partly shown)  11.2%
71. Cn1nc(C(C)(C)C)cc1C(=O)NNC(=O)c1ccccc1Cl  14.1%
72. CC(=O)Nc1c(NC(=O)CC#N)[nH]c2c(c1=O)c(=O)n(C)c(=O)n2C  15.6%
73. COC(=O)c1ccc(Oc2c(F)c(F)nc(N3CCOCC3)c2F)cc1  15.8%
74. O=C(NCCCCc1ccccc1)c1ccc(Br)cc1  16.4%
75. COC(=O)[C@@H]1C[C@H]2CC[C@H](O)C[C@H]2N1Cc1ccc(-c2ccccc2)cc1  16.5%
76. Cc1ccc(NC(=S)Nc2cccc(-c3n[nH]c(=S)o3)c2)cc1  16.7%
77. O=C(Nc1ccc(Cn2cccn2)cc1)c1ccc(COc2ccc(Br)cc2)cc1  16.8%
78. O=C(COC(=O)c1ccc(-c2nnc(-c3ccccc3)o2)cc1)c1ccccc1  16.8%
79. CCN(CC)CCOC(=O)c1cc2cc(COC)ccc2o1.CI  17%
80. CC(C)(C)C(=O)Nc1ccccc1C(=O)NCc1cccnc1  17.3%
81. COc1cc(-c2cc(=O)c3c(O)cc(O)cc3o2)ccc1O  17.3%
82. O=c1c2ccccc2cnn1Cc1n[nH]c(=S)n1-c1ccccc1F  18.8%
83. S=C1NNC2(CC3CC2C2CCCC32)NN1 (stereo not shown)  20.5%
84. CCC(C)(C)NC(=O)CN(C(=O)CCC(=O)Nc1cc(C)ccn1)c1ccc2c(c1)OCCO2  22.7%
85. CC(CC(=O)Nc1cccnc1)c1ccccc1 (stereo not shown)  23%
86. Cn1ncc([N+](=O)[O-])c1C(=O)NC1CCCCC1  24.1%
87. COc1cccc(OC)c1C(=O)NNC(=O)c1ccc(F)cc1  26.9%
88. Cc1ccc(NC(=O)CN2CCCC2)c2c1CC(C)(C)O2  26.9%

— publication PMC4336329 (PLoS ONE, 2015)
